Results as given in the supplement of paper PMC4967469.
A lower IC50 marks a more sensitive line; a limit (>, <) means that the fit lies beyond the doses tested. The AUC spans the tested range (256-fold, ending at the top dose) of the same fit; it is 1 without any effect and falls as sensitivity rises. Where the top dose is marked as inferred, it was derived from the fitted curves, not read from the paper.

Columns and labels:
Test in all cases: Viability of human cancer cell lines after 72 h of drug (GDSC screen)
NG-25 = compound: CCN1CCN(Cc2ccc(NC(=O)c3ccc(C)c(Oc4ccnc5[nH]ccc45)c3)cc2C(F)(F)F)CC1 [NG-25]; conditions: top dose 10.24 µM; top dose inferred
Method: (§1)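 Human cancer cell lines in 384-well plates, medium with 10% serum, drug for 72 h over a 256-fold dose range (nine 2-fold or five 4-fold steps up to the top dose). Adherent lines were fixed and stained with the nucleic acid dye Syto60, suspension lines read with resazurin; signal relative to control wells, capped at 0 and 100%. One two-parameter sigmoid per drug and line, fitted in a mixed model over all curves with the slope shared within a line.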

PFI-1 = compound: COc1ccccc1S(=O)(=O)Nc1ccc2c(c1)CN(C)C(=O)N2 [PFI-1]; conditions: top dose 10 µM; top dose inferred
Method: as §1

BMS-509744 = compound: COc1cc(C)c(Sc2cnc(NC(=O)c3ccc(CNC(C)C(C)(C)C)cc3)s2)cc1C(=O)N1CCN(C(C)=O)CC1 [BMS-509744]; conditions: top dose 10.24 µM; top dose inferred
Method: as §1

GSK-1904529A = compound: CCc1cc(Nc2nccc(-c3c(-c4ccc(OC)c(C(=O)Nc5c(F)cccc5F)c4)nc4ccccn34)n2)c(OC)cc1N1CCC(N2CCN(S(C)(=O)=O)CC2)CC1 [GSK-1904529A]; conditions: top dose 1.024 µM; top dose inferred
Method: as §1

Tipifarnib = compound: Cn1cncc1[C@@](N)(c1ccc(Cl)cc1)c1ccc2c(c1)c(-c1cccc(Cl)c1)cc(=O)n2C [Tipifarnib]; conditions: top dose 16 µM; top dose inferred
Method: as §1

Cell Line	AUC (NG-25)	IC50 (NG-25) [µM]	AUC (PFI-1)	IC50 (PFI-1) [µM]	AUC (BMS-509744)	IC50 (BMS-509744) [µM]	AUC (GSK-1904529A)	IC50 (GSK-1904529A) [µM]	AUC (Tipifarnib)	IC50 (Tipifarnib) [µM]
TE-6 (oesophagus, adherent)	0.901	> 10.2	0.956	> 10	0.939	> 10.2	0.986	> 1.02	0.729	5.1
UACC-257 (melanoma, adherent)	0.768	4.77	0.88	> 10	0.837	9.44	0.972	> 1.02	0.842	15.4
MONO-MAC-6 (acute myeloid leukaemia, suspension)	0.189	0.0702	0.795	4.96	0.83	6.94	0.967	> 1.02	0.666	2.99
HEL (acute myeloid leukaemia, semi-adherent)	0.831	5.02	–	–	0.909	10.2	0.992	> 1.02	0.365	0.454
SF126 (glioma, adherent)	0.96	> 10.2	0.835	7.07	0.98	> 10.2	0.974	> 1.02	0.64	2.49
NCI-H1666 (lung adenocarcinoma, semi-adherent)	0.98	> 10.2	0.805	5.62	0.983	> 10.2	0.986	> 1.02	0.983	> 16
NCI-H526 (small cell lung carcinoma, suspension)	0.933	> 10.2	0.98	> 10	0.949	> 10.2	0.99	> 1.02	0.863	12.9
NCI-H322M (lung adenocarcinoma, suspension)	0.865	> 10.2	0.973	> 10	0.935	> 10.2	0.986	> 1.02	0.987	> 16
LB2518-MEL (melanoma, adherent)	0.966	> 10.2	0.927	> 10	0.913	> 10.2	0.986	> 1.02	0.573	1.6
TE-11 (oesophagus, adherent)	0.987	> 10.2	0.9	> 10	0.858	7.25	0.988	> 1.02	0.598	1.81
NB(TU)1-10 (neuroblastoma, adherent)	0.811	4.56	0.993	> 10	0.896	9.57	0.966	> 1.02	0.669	2.75
D-263MG (glioma, adherent)	0.981	> 10.2	0.843	9.36	0.899	> 10.2	0.982	> 1.02	0.96	> 16
COLO-824 (breast, adherent)	0.881	> 10.2	0.965	> 10	0.986	> 10.2	0.984	> 1.02	0.843	11.7
DB (B-cell lymphoma, suspension)	0.707	2.67	0.785	4.86	0.939	> 10.2	0.983	> 1.02	0.799	8.83
LB1047-RCC (kidney, adherent)	0.75	3.73	0.807	5.92	0.896	> 10.2	0.955	> 1.02	0.862	> 16
KGN (ovary, adherent)	0.848	10.2	0.768	4.54	0.824	7.87	0.969	> 1.02	0.317	0.275
DND-41 (T-cell leukaemia, suspension)	0.615	1.27	0.868	7.36	0.929	> 10.2	0.978	> 1.02	0.701	3.39
IA-LM (large cell lung carcinoma, adherent)	0.951	> 10.2	0.845	8.56	0.806	6.02	0.981	> 1.02	0.226	0.142
LXF-289 (lung adenocarcinoma, adherent)	0.89	> 10.2	0.9	> 10	0.818	5.62	0.982	> 1.02	0.66	2.76
IM-9 (myeloma, suspension)	–	–	0.924	> 10	0.924	> 10.2	0.979	> 1.02	0.848	9.52
SW954 (urogenital system, adherent)	0.834	6.79	–	–	0.847	7.71	0.982	> 1.02	0.62	2.15
KMS-12-BM (myeloma, suspension)	0.872	7	–	–	0.842	5.44	0.991	> 1.02	0.778	5.36
GCIY (stomach, adherent)	0.857	10.1	–	–	0.896	> 10.2	0.97	> 1.02	0.771	6.91
NCI-H2171 (small cell lung carcinoma, suspension)	0.914	> 10.2	–	–	0.981	> 10.2	0.991	> 1.02	0.858	10.5
HCC1599 (breast, suspension)	0.868	> 10.2	–	–	0.948	> 10.2	0.982	> 1.02	0.789	8.21
SHP-77 (small cell lung carcinoma, semi-adherent)	0.884	9.02	0.986	> 10	0.975	> 10.2	–	–	0.823	8.15
H-EMC-SS (chondrosarcoma, adherent)	0.666	2.14	–	–	0.974	> 10.2	0.98	> 1.02	0.908	> 16

Cell Line	AUC (NG-25)	IC50 (NG-25) [µM]	AUC (PFI-1)	IC50 (PFI-1) [µM]	AUC (BMS-509744)	IC50 (BMS-509744) [µM]	AUC (GSK-1904529A)	IC50 (GSK-1904529A) [µM]	AUC (Tipifarnib)	IC50 (Tipifarnib) [µM]
MY-M12 (leukaemia, suspension)	0.093	< 0.04	–	–	0.893	> 10.2	0.975	> 1.02	0.622	2.27
NCI-H1963 (small cell lung carcinoma, suspension)	0.968	> 10.2	–	–	0.97	> 10.2	0.991	> 1.02	0.821	7.76
LB647-SCLC (small cell lung carcinoma, semi-adherent)	–	–	0.933	> 10	0.921	> 10.2	0.985	> 1.02	0.947	> 16
RCC10RGB (kidney, adherent)	0.768	8.59	–	–	0.831	> 10.2	0.948	> 1.02	0.755	11.6
KP-N-YS (neuroblastoma, adherent)	0.729	3.19	–	–	0.933	> 10.2	0.977	> 1.02	0.791	8.41
SU-DHL-1 (anaplastic large cell lymphoma, suspension)	0.916	7.41	–	–	0.978	> 10.2	0.997	> 1.02	0.844	7.04
TE-441-T (rhabdomyosarcoma, adherent)	0.829	6.03	–	–	0.975	> 10.2	0.989	> 1.02	0.967	> 16
BC-3 (B-cell lymphoma, suspension)	0.854	6.79	–	–	0.952	> 10.2	0.984	> 1.02	0.678	2.95
NK-92MI (lymphoid neoplasm, suspension)	–	–	–	–	0.97	> 10.2	0.987	> 1.02	0.703	3.55
HCC-33 (small cell lung carcinoma, adherent)	0.961	> 10.2	–	–	0.965	> 10.2	0.986	> 1.02	0.863	14.1
NCI-H64 (small cell lung carcinoma, suspension)	0.87	5.63	–	–	0.996	> 10.2	0.988	> 1.02	0.863	8.4
TALL-1 (T-cell lymphoblastic leukaemia, suspension)	0.976	> 10.2	–	–	0.921	> 10.2	0.99	> 1.02	0.948	> 16
NCI-H748 (small cell lung carcinoma, suspension)	0.89	> 10.2	–	–	0.889	> 10.2	0.979	> 1.02	0.957	> 16
SIG-M5 (acute myeloid leukaemia, suspension)	0.502	0.646	–	–	0.842	4.73	0.994	> 1.02	0.052	< 0.0625
MHH-NB-11 (neuroblastoma, adherent)	0.77	4.29	–	–	0.967	> 10.2	0.985	> 1.02	0.86	15.6
DJM-1 (skin, adherent)	0.945	> 10.2	–	–	0.929	> 10.2	0.989	> 1.02	0.843	11.2
DOHH-2 (B-cell lymphoma, suspension)	–	–	–	–	0.879	10.1	0.985	> 1.02	0.772	6.06
NCI-H2196 (small cell lung carcinoma, adherent)	0.805	5.52	–	–	0.965	> 10.2	0.973	> 1.02	0.902	> 16
JSC-1 (B-cell lymphoma, suspension)	0.801	4.94	–	–	0.9	> 10.2	0.979	> 1.02	0.32	0.315
KARPAS-231 (B-cell leukaemia, suspension)	–	–	0.922	9.38	0.886	6.83	0.991	> 1.02	0.437	0.7
EHEB (lymphoid neoplasm, suspension)	–	–	0.968	> 10	0.96	> 10.2	0.978	> 1.02	0.765	8.59
SUP-B15 (lymphoblastic leukaemia, suspension)	0.181	0.0744	–	–	0.914	> 10.2	0.985	> 1.02	0.521	1.14
IST-SL2 (small cell lung carcinoma, suspension)	–	–	0.975	> 10	0.901	> 10.2	0.988	> 1.02	0.78	6.51
BB30-HNC (head and neck, adherent)	0.879	10.1	–	–	0.858	8.12	0.968	> 1.02	0.408	0.563
CAL-148 (breast, suspension)	0.96	> 10.2	–	–	0.972	> 10.2	0.988	> 1.02	0.528	1.19
SCC-3 (B-cell lymphoma, suspension)	0.914	7.39	–	–	0.989	> 10.2	0.997	> 1.02	0.997	> 16
NCI-H510A (small cell lung carcinoma, semi-adherent)	0.852	6.95	–	–	0.944	> 10.2	0.989	> 1.02	0.889	15.6
